PubChem BioAssay AID485313 (National Center for Advancing Translational Sciences (NCATS), 2010)
Hit rate of the full screen: of about 320,000 compounds, about 7,600 (2.4%) were called active. This list was built around the results that the source calls inconclusive (neither active nor inactive); the mix of calls is not that of the screen. Calls come from the whole dose curve; as a rule, active = well fitted activation curve with a large enough effect; inconclusive = small, poorly fitted or top-dose-only effect; inactive = no such curve, though single readings can be large or run the other way. No potency is given beside an inconclusive call; the fits are too rough.

assay: qHTS Assay for NPC1 Promoter Activators; details: Huh7 NPC1 promoter luciferase reporter, 24 h; series mostly up to 9.22 µM; activation: at the top concentration; note: nearly all actives have a fitted effect of over 60% in size;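 for activation: reporter is driven by a mutant NPC1 promoter; % of control where 0% means no effect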
Outline: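 Huh7 reporter cells (NPC1 promoter driving luciferase) are dosed with compound for 24 h at 37 °C, 5% CO2; luciferase detection reagent is then added and luminescence measured after 10 min at ambient temperature.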
Potency is the fitted concentration of half-maximal effect; tags give direction and shape of the fitted curve.

With Cc1nc(NC(=O)C2CCCCC2)sc1C as the molecule, how does the Potency read?
The Potency was inconclusive [activator, single point].

For Cc1[nH]n(C(N)=S)c(=O)c1N=Nc1cccc([N+](=O)[O-])c1C, which Potency is on record?
Its Potency is inconclusive [activator, partial curve].

Which Potency does the source give for CN(C)/C=C1/C(=O)N(c2ccc([N+](=O)[O-])cc2)N=C1c1ccccc1 here?
Its Potency is inconclusive [activator, partial curve].

Which Potency does the source give for Cc1cc(C)c2nc(NC(=O)c3ccco3)sc2c1 here?
Its Potency is active: 2.82 µM.

Which Potency does the source give for N#Cc1nc(-c2cccc3ccccc23)oc1N1CCCCC1 here?
Its Potency is inconclusive [activator, single point].

For Cc1ccccc1-c1nc(-c2ccc(NC(=O)c3cccs3)cc2)no1, which Potency is on record?
Its Potency is inconclusive [activator, single point].

For COc1ccc(OCC(=O)Nc2cc(C)c(Cl)cc2OC)c([N+](=O)[O-])c1, which Potency is on record?
Its Potency is inconclusive [activator, full curve].

With Cc1cc(C)n(-c2nc(-c3ccc(Cl)cc3)cs2)n1 as the molecule, how does the Potency read?
Its Potency is inconclusive [activator, single point].

With COc1ccc(OCc2csc(N)n2)cc1 as the molecule, how does the Potency read?
Its Potency is inconclusive [activator, partial curve].

Which Potency does the source give for Cc1ccc(C)c(N=Nc2ccc(O)c3ncccc23)c1 here?
The Potency was inconclusive [activator, single point].

With O=C(NCC(=O)N1CCCCC1)c1sc2ccccc2c1Cl as the molecule, how does the Potency read?
Its Potency is active: 1.78 µM.

Which Potency does the source give for Cc1occc1-c1nc(-c2ccccn2)no1 here?
Its Potency is inconclusive [activator, full curve].

With CCCCC(=O)NC(=S)Nc1cccc(NC(=O)CC)c1 as the molecule, how does the “activation” value read?
The value was inactive: 1.31%.

Which Potency does the source give for Cc1cc(=O)oc2cc(NC(=O)c3ccc(OC(F)F)cc3)ccc12 here?
Its Potency is inconclusive [activator, full curve].

For c1ccc(-c2cn3nc4c(nc3n2)CCCC4)cc1, which Potency is on record?
The Potency was active: 0.112 µM.

For O=C1CCCc2c1sc1nc3n(c(=O)c21)CCCCC3, which Potency is on record?
The Potency was inconclusive [activator, partial curve].

Which Potency does the source give for CCOC(=O)c1sc(NC(=O)c2ccccc2OCC)nc1C here?
The Potency was inconclusive [activator, full curve].

For CC(C)(C)C(=O)OCc1nc(-c2ccc(F)cc2)cs1, which Potency is on record?
The Potency was inconclusive [activator, partial curve].

For CNc1sc(C(=O)c2ccc(F)cc2)c(N)c1-c1nc2ccccc2s1, which “activation” value is on record?
Its value is inactive: 16.7%.

Which “activation” value does the source give for CN(C(=O)c1ccc2c(c1)S(=O)(=O)N=C1CCCCCN12)c1ccccc1 here?
The value was inactive: 0.166%.

Which Potency does the source give for CCSc1ncc(/C=N/Nc2ccc(Cl)cc2)n1C here?
Its Potency is active: 1.58 µM.

Which Potency does the source give for Cc1ccc(C(=O)O/N=C(\N)Cc2cccs2)c(Cl)c1 here?
Its Potency is active: 1.58 µM.

With CC(=O)c1cc2c(cc1NC(=O)c1ccc(C)cc1)OCCO2 as the molecule, how does the “activation” value read?
Its value is inactive: 0.2%.

With CC1CCN(S(=O)(=O)c2ccc3c(c2)N(CC(=O)NCCCN2CC(C)CC(C)C2)C(=O)CS3)CC1 (centres undefined) as the molecule, how does the “activation” value read?
Its value is inactive: 1.71%.

Which Potency does the source give for COc1ccc(N/C=C\C(=O)c2ccc(C)cc2)cc1OC here?
Its Potency is inconclusive [activator, single point].

With Cc1ccc(Nc2nc(N)nc(CSc3nccn3C)n2)c(C)c1 as the molecule, how does the Potency read?
Its Potency is inconclusive [activator, single point].

Which Potency does the source give for CC(C)c1ccc(Nc2ncccc2C#N)cc1 here?
The Potency was inconclusive [activator, single point].

With COc1ccc(-c2csc(NC(=O)CSc3n[nH]c(C)n3)n2)cc1 as the molecule, how does the Potency read?
The Potency was inconclusive [activator, single point].

For CCOC(=O)Nc1cccc(C(=O)O)c1, which Potency is on record?
Its Potency is inconclusive [activator, partial curve].

With Cc1ccc(N=Nc2cc(C)ccc2O)c(C)c1 as the molecule, how does the Potency read?
The Potency was inconclusive [activator, full curve].

For CC(=O)c1ccc(Oc2ncnc3sccc23)cc1, which Potency is on record?
The Potency was inconclusive [activator, partial curve].

For CC(C)CC(=O)Nc1ccc(S(=O)(=O)Nc2nccs2)cc1, which “activation” value is on record?
Its value is inactive: -2.32%.

For COc1ccc(C(=O)Nc2cc(Cl)cc(Cl)c2)c(OC)n1, which Potency is on record?
The Potency was inconclusive [activator, single point].

With Cc1ccccc1NC(=O)CCOc1ccccc1 as the molecule, how does the Potency read?
The Potency was inconclusive [activator, single point].

For Cc1cc(NC(=O)CSc2ccc(-c3ccc(Br)cc3)nn2)no1, which Potency is on record?
The Potency was inconclusive [activator, single point].

With COc1ccc(C2c3ccc(O)cc3Oc3ncn4nc(-c5ccccn5)nc4c32)cc1OC (centres undefined) as the molecule, how does the “activation” value read?
Its value is inactive: -0.636%.

Which Potency does the source give for CC(=O)Nc1cccc(-c2csc(Nc3cc(C)ccn3)n2)c1 here?
The Potency was active: 2.51 µM.

With Nc1cc(Nc2ccc(Br)cc2)nc(N)n1 as the molecule, how does the Potency read?
The Potency was active: 3.55 µM.

Which Potency does the source give for Cc1cccc(-c2noc(CCc3ccccc3)n2)c1 here?
Its Potency is inconclusive [activator, partial curve].

Which Potency does the source give for CSc1ccc(C(=O)N2CCc3ccc(NC(=O)c4ccccn4)cc3C2)cc1 here?
Its Potency is inconclusive [activator, single point].

Which Potency does the source give for C/C(=N\NC(=O)c1n[nH]c2c1CCC2)c1ccco1 here?
Its Potency is inconclusive [activator, full curve].

For Cc1ccc(NC(=O)Nc2ccc3c(c2)nnn3C)cc1C, which Potency is on record?
Its Potency is inconclusive [activator, full curve].

With O=C(Nc1ccccc1)Nc1cccc2cccnc12 as the molecule, how does the “activation” value read?
The value was inactive: 2.71%.

With c1ccc(OCc2nc(-c3ccccc3)no2)cc1 as the molecule, how does the Potency read?
Its Potency is inconclusive [activator, partial curve].

Which Potency does the source give for CC(C)(C)Nc1nc(Cl)nc(Nc2ccccc2)n1 here?
Its Potency is inconclusive [activator, single point].

Which Potency does the source give for N#Cc1ccccc1CSc1nnc(-c2ccncc2)o1 here?
Its Potency is inconclusive [activator, partial curve].

With CC(C)(C)S(=O)(=O)c1cnc2c(-c3ccc(F)cc3)cnn2c1N as the molecule, how does the Potency read?
Its Potency is inconclusive [activator, single point].

Which “activation” value does the source give for O=C(O)C1CC=CCC1C(=O)Nc1cc(Cl)ccc1Cl (centres undefined) here?
Its value is inactive: -0.641%.

For Cc1ccc(CSc2nc3[nH]ncc3c(=O)[nH]2)cc1, which Potency is on record?
Its Potency is inconclusive [activator, partial curve].
